According to PubChem BioAssay AID493208 (National Center for Advancing Translational Sciences (NCATS), 2011):
Among all 44,000 compounds or so, about 340 (0.77%) were called active. Inconclusive results (about 5%) are left out. Calls follow the shape of the dose curve; as a rule, active = well fitted inhibition curve with a large enough effect; inconclusive = small, poorly fitted or top-dose-only effect; inactive = flat fitted curve, though single readings scatter. This is one part of the list.

experiment: Acumen qHTS Assay for Inhibitors of the mTORC1 Signaling Pathway in MEF (Tsc2-/-, p53-/-) Cells: Sytravon; settings: phospho-rpS6 immunofluorescence/PI, 24 h; series mostly up to 38.3 µM; activity change, negative = inhibition: at the top concentration; also: nearly all actives have a fitted effect of over 50% in size;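 as to activity change, negative = inhibition: plate controls were DMSO for no effect and rapamycin for full effect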
Summary of the method: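 Plate MEFs (Tsc2-/-, p53-/-, empty vector) in DMEM/10% FBS; after 24 h add compound, incubate 24 h at 37 degree Celsius; fix in PFA/TX-100, block, stain phospho-rpS6 and 10 uM PI; scan at 488 nm; report % positive cells.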
Potency is read from the fitted curve at half-maximal effect.

SMILES	activity change, negative = inhibition	Potency
CCC(C)Nc1nc2c(c(=O)[nH]c(=O)n2C)n1Cc1ccc(F)cc1 (configuration not stated)	inactive: -20.7%	–
Cc1ccc(-n2ncc3c(NCCc4ccc(S(N)(=O)=O)cc4)ncnc32)cc1	inactive: 7.54%	–
CCCCOC(=O)CSc1ncnc2sc3c(c12)CCC(C)C3 (configuration not stated)	inactive: -0.119%	–
CC1=C(c2ccc(C)cc2)S(=O)(=O)NC1=NCc1ccccc1Cl	inactive: -12.5%	–
COC(=O)c1cc2sccc2n1Cc1nc(-c2cccc(Cl)c2)oc1C	inactive: -0.934%	–
C=Cc1ccc(Cn2c(C(=O)O)c(CNCCc3ccco3)c3ccc(C)cc32)cc1	inactive: -0.166%	–
Cc1ccc2oc(-c3cccc(NC(=O)c4cccc5c(Cl)cccc45)c3)nc2c1	inactive: -4.03%	–
CCCCn1c(CCCNC(=O)c2cccc(C)c2)nc2ccccc21	inactive: -2.48%	–
COCCNC(=O)Cn1nc(-c2ccc(C)cc2)c2ccccc2c1=O	inactive: 6.11%	–
Cc1nc2cc(-c3cccc(F)c3)nn2c(C)c1CCC(=O)Nc1ccccc1C(N)=O	inactive: -6.55%	–
Cc1cccc(NC(=O)c2ccc(CN3CC(=O)N4CCCCC4C3=O)cc2)c1C (configuration not stated)	inactive: -0.838%	–
COc1ccc(CNc2nc(-c3ccc(Cl)cc3)cc(C(F)(F)F)n2)cc1	inactive: -9.71%	–
CCc1ccccc1NC(=O)COCc1cc(-c2ccco2)on1	inactive: 1.16%	–
COc1ccccc1S(=O)(=O)Cc1ccc(C(=O)N2CCN(c3cc(Cl)ccc3C)CC2)o1	inactive: -24.1%	–
CCOc1ccc2c(c1)c(=O)c(C(=O)c1ccc(CC)cc1)cn2CC(=O)Nc1cccc(Cl)c1	inactive: 2.66%	–
COc1cc(C2CC(=O)Nc3ccc4ccccc4c32)ccc1OC(=O)C(C)C (configuration not stated)	inactive: -10.4%	–
O=C(NCCc1ccccc1)c1ccc2nc(CCc3ccccc3)oc2c1	inactive: -8.14%	–
Cc1cc(C)c(Cn2c(=O)n(CCC(=O)NCc3ccc4c(c3)OCO4)c(=O)c3ccccc32)c(C)c1	inactive: 2.24%	–
CCOc1ccc(OCC)c(NC(=O)C2CCN(S(=O)(=O)c3ccc4c(c3)CC(C)N4C(C)=O)CC2)c1 (configuration not stated)	inactive: -16.8%	–
Cc1ccc(N2C(=O)[C@@H]3CSC(c4ccc(Cl)cc4)N3C2=O)cc1 (some centres not stated)	inactive: -9.73%	–
Cc1cc(O)c(C(c2ccccc2)N2CCN(c3ccc(F)cc3)CC2)c(=O)n1Cc1ccco1 (configuration not stated)	inactive: 6.44%	–
O=C(c1ccco1)N(Cc1cccs1)c1ccc(F)cc1	inactive: -6.76%	–
Cc1ccc(-n2c(CCC(=O)O)ccc2-c2cccs2)cc1Cl	inactive: 3.12%	–
Cc1cccc(OCc2cc(=O)n3c4c(sc3n2)CCCC4)c1C	inactive: -14.3%	–
CCc1ccc(C(=O)CC2(O)C(=O)N(Cc3ccc(C)cc3)c3ccccc32)cc1 (configuration not stated)	–	active: 11.7 µM

SMILES	activity change, negative = inhibition	Potency
CC(C)c1nc2ccc(C(=O)NCc3ccccc3Br)cc2o1	inactive: 2.27%	–
CCc1ccccc1NC(=O)c1cc2nc(-c3ccc(Br)cc3)cc(C(F)(F)F)n2n1	inactive: -1.47%	–
Cc1noc(-c2ccccc2OCC(=O)Nc2ccccc2[N+](=O)[O-])n1	inactive: 2.11%	–
COc1cccc(CNC(=O)c2ccc(-n3c(C)cc4c3CCCC4)cc2)c1	inactive: 2.96%	–
COc1ccc(CNC(=O)c2sc3nc[nH]c(=O)c3c2C)cc1	inactive: -0.0727%	–
CCOc1ccccc1N1CC(c2nc3ccccc3n2CCCOc2ccc(OC)cc2)CC1=O (configuration not stated)	inactive: -8.59%	–
CC(C)OCCCN1C(=O)c2[nH]nc(-c3ccccc3O)c2C1c1ccccc1F (configuration not stated)	inactive: -5.14%	–
O=C(NCC1CCN(Cc2cccc(Cl)c2)CC1)Nc1ccc(F)c(Cl)c1	–	active: 18.5 µM
CCN1CCSc2ccc(C(=O)NCc3cccc(Br)c3)cc21	inactive: -1.16%	–
CCCCOc1ccccc1C(=O)N(Cc1sccc1C)C1CCS(=O)(=O)C1 (configuration not stated)	inactive: 6.41%	–
CC(C)(C)c1ccc(C(=O)N2CCCC(c3nc4c(nnn4Cc4cccc(F)c4)c(=O)[nH]3)C2)cc1 (configuration not stated)	inactive: -0.0857%	–
Cc1ccc(-c2cn3nc(N4CCCC(C(=O)NCc5ccc(F)cc5)C4)sc3n2)cc1 (configuration not stated)	inactive: -5.69%	–
COc1ccc(N2CCN(Cc3nc4c(c(=O)n(C)c(=O)n4C)n3C(C)C)CC2)cc1	inactive: -1.58%	–
Cc1cc(C)cc(NC(=O)Cn2c(=O)n(-c3ccc(C)c(C)c3)c(=O)c3oc4ccccc4c32)c1	inactive: 2.05%	–
Cc1ccc2nc(CN3CCN(S(=O)(=O)c4ccc(C(C)C)cc4)CC3)oc2c1	inactive: 0%	–
CN(C)CCCn1c(-c2ccc(Cl)cc2)csc1=Nc1ccccc1	inactive: -15.6%	–
COC(=O)c1ccc(NC(=O)CCn2cnnn2)c(C)c1	inactive: -1.45%	–
COc1ccc(NC(=O)CN2C(=O)CSc3ccc(S(=O)(=O)N(C)C)cc32)cc1Cl	inactive: -4.33%	–
COc1ccc(NC(=O)C2CCN(C(=O)N3CCOc4ccccc43)CC2)cc1	inactive: -11.3%	–
COc1ccc(CNC(=O)CCCn2c(=O)c3cccn3c3ccc(F)cc32)cc1OC	inactive: 3.28%	–
Cc1ccc(-n2ncc(C(=O)NCc3ccccn3)c2C2CCN(C(=O)OC(C)(C)C)CC2)c(C)c1	inactive: 7.46%	–
COc1ccc(-c2noc(N3CCC(C(=O)Nc4ccc(OC)c(OC)c4)CC3)n2)cc1	inactive: -14.7%	–
O=c1c2cc3c(cc2n(Cc2ccccc2)c(=O)n1Cc1nc(-c2ccccc2)no1)OCO3	inactive: -3.7%	–
COc1ccc(NC(=O)N2CCN(S(=O)(=O)c3ccc4c(ccn4C)c3)CC2)cc1OC	inactive: -6.68%	–
COCCCNC(=O)C(C)n1c2ccccc2c2cnn(C)c(=O)c21 (configuration not stated)	inactive: -8.8%	–

SMILES	activity change, negative = inhibition	Potency
Cc1cccc(C)c1NC(=O)CN(Cc1ccc(Br)cc1)S(=O)(=O)c1ccccc1	inactive: 1.62%	–
COc1ccc(Br)cc1CNC(=O)c1cc(=O)[nH]c2ccc(S(=O)(=O)N3CCCCC3)cc12	inactive: 20%	–
CCCSc1nc(-c2ccc(OC)cc2)cc(-c2ccccc2OC)c1C#N	inactive: 4.49%	–
COc1ccc(Cl)cc1Nc1cc(C)nc2nc(-c3ccccc3C)nn12	inactive: -0.237%	–
CN(C)c1ccc(C(CNC(=O)c2cccc(C(F)(F)F)c2)N2CCCC2)cc1 (configuration not stated)	inactive: 2.78%	–
CCOc1ccc(NC(=O)C2CCN(S(=O)(=O)c3c(C)noc3/C=C/c3c(C)cc(C)cc3C)CC2)cc1	inactive: -16.8%	–
CCCC(=O)Nc1cccc(-c2cn3cccnc3n2)c1	inactive: 0.703%	–
Cc1ccc(CNc2ncnc3c2c(-c2ccccc2)cn3-c2ccccc2)cc1	inactive: -0.786%	–
CCOC(=O)c1ccc(NS(=O)(=O)c2ccc3c(c2)OCCO3)cc1	inactive: -13.8%	–
COc1ccc(OC)c(CCNC(=O)Cn2ccc3cc(S(=O)(=O)N4CCCCC4)ccc32)c1	inactive: -4.51%	–
COc1ccc(OC)c(-c2noc(N3CCN(c4cc(C)ccc4C)CC3)n2)c1	inactive: -8.07%	–
CCN(CC)c1ccc(NC(=O)c2sc3ccccc3c2Cl)cc1	inactive: -2.82%	–
CCCn1c(=N)c(C(=O)NCc2cccnc2)cc2c(=O)n3ccccc3nc21	inactive: -6.75%	–
Cc1ccc(C)c(CNC(=O)c2ccc3c(c2)nc2n3CCC(C)C2)c1 (configuration not stated)	inactive: -15.8%	–
Cc1ccc(N(C)S(=O)(=O)c2nnc(NC(=O)CC(C)C)s2)cc1	inactive: 7.99%	–
COc1ccccc1-c1cc2nc(C)c(CCC(=O)NCCc3ccc(SC)cc3)c(C)n2n1	inactive: 1.85%	–
CCOC(=O)c1cc(OC(=O)c2ccc(OC)cc2)n(-c2ccccc2)n1	inactive: -1.35%	–
COc1ccc(NC(=O)C(Cc2ccccc2)NS(=O)(=O)c2ccc3c(c2)CCN3C(C)=O)cc1 (configuration not stated)	inactive: -13.5%	–
CCOC(=O)Cc1ccc(NC(=O)Nc2cc3c(cc2N2CCCCC2)n(C)c(=O)n3C)cc1	inactive: -2.67%	–
Cc1ccc(NC(=O)Cn2c(=O)ccc3cc(S(=O)(=O)N4CCC(C)CC4)ccc32)c(C)c1	inactive: -5.46%	–
CCOC(=O)c1cc2c(=O)n3ccccc3nc2n(C)c1=NC(=O)c1c(-c2ccccc2Cl)noc1C	inactive: -5.13%	–
O=C(Nc1ccc(F)cc1F)c1ccc2c(c1)CCN2S(=O)(=O)c1ccc(Cl)cc1	inactive: -8.33%	–
COc1ccc(-n2cc(C(=O)Nc3cc(F)ccc3F)c3ccccc3c2=O)cc1	inactive: 6.63%	–
CCOc1ccc(CNC(=O)Cn2ccc3cc(S(=O)(=O)N4CCCCCC4)ccc32)cc1	inactive: -6.27%	–
CCCCOC(=O)c1ccc(NC(=O)CC2NCCNC2=O)cc1 (configuration not stated)	inactive: -1.65%	–

SMILES	activity change, negative = inhibition	Potency
COCCCNC(=O)C1CCC(CNS(=O)(=O)c2ccc(OC)cc2)CC1 (configuration not stated)	inactive: -5.34%	–
COc1cccc(CNC(=O)C2CCN(Cc3cc4ccccc4n3Cc3ccc(C)cc3)CC2)c1	inactive: -9.67%	–
COc1ccc2oc(=O)c(C(=O)Nc3cccc(C(=O)O)c3)cc2c1	inactive: 0.667%	–
COc1cc(-c2cc3n(C)c(C)c(CCC(=O)NCc4ccccc4)c(=O)n3n2)cc(OC)c1OC	inactive: 5.93%	–
Cc1ccc(CNC(=O)CCCN2C(=O)CCn3nc(-c4cn(C)c5ccccc45)cc32)cc1	inactive: -20.7%	–
Cc1ccc(Cn2c(CCCNC(=O)c3ccco3)nc3ccccc32)cc1	inactive: -8.86%	–
Cc1nc2c(-c3ccccc3)c(C)nn2c(C)c1CCC(=O)NCc1ccc(Cl)cc1	inactive: -7.75%	–
COc1ccc(CCNS(=O)(=O)c2ccc(N3CCCCS3(=O)=O)cc2)cc1OC	inactive: 0%	–
CCOC(=O)c1nnn(CC(=O)Nc2cc(C)cc(C)c2)c1C(=O)OCC	inactive: 2.88%	–
COc1ccccc1CNC(=O)c1cc2cccc3c2n1CC(C)S3 (configuration not stated)	inactive: 0%	–
CS(=O)(=O)N(CC(=O)NCCSCc1ccccc1)c1cc(C(F)(F)F)ccc1Cl	inactive: -9.99%	–
O=C(Cn1cnc2onc(-c3ccc(F)cc3)c2c1=O)Nc1cccc(C(F)(F)F)c1	inactive: -2.05%	–
COc1ccc(NC(=O)CC2C(=O)N(c3ccccc3)C(=O)N2C2CCCCC2)cc1 (configuration not stated)	inactive: -1.09%	–
CCOC(=O)c1ccc(NC(=O)c2nc(SC(C)C)ncc2Cl)cc1	inactive: 2.23%	–
Cc1ccc(C)c(Cn2cnc3c(cnn3-c3ccc(F)cc3)c2=O)c1	inactive: 2.62%	–
CCN(Cc1ccccc1)S(=O)(=O)c1ccc2c(c1)CCCN2C(C)=O	inactive: -15.1%	–
CCc1ccc(NC(=O)N2c3ccccc3Sc3ccccc32)cc1	inactive: 2.3%	–
Cc1cc(-c2ccccc2)n2nc(-c3cccc(Br)c3)cc2n1	inactive: -7.32%	–
Cn1nc(C(=O)NCc2ccc(F)cc2)c2c1-c1ccccc1SC2	inactive: -7.41%	–
Cc1ccc(-c2c(C(=O)NCc3ccc(F)cc3)oc(=O)c3ccccc23)cc1	inactive: -0.341%	–
CC(C)CN(CCNC(=O)c1cn(C)c2ccc(S(=O)(=O)N3CCOCC3)cc2c1=O)CC(C)C	inactive: -1.23%	–
CC(=O)c1cccc(NC(=O)c2oc(=O)c3ccccc3c2-c2ccccc2)c1	inactive: -2.82%	–
